Data reported in PubChem BioAssay AID624417 (National Center for Advancing Translational Sciences (NCATS), 2012).
The campaign covered roughly 410,000 compounds. About 6,400 (1.6%) were called active. Inconclusive means that the source gave no clear call. Such entries were picked first, then a sample of the others. The call rests on the fitted dose curve; in most records, active means well fitted inhibition curve with a large enough effect; inconclusive means small, poorly fitted or top-dose-only effect; inactive means no such curve, though single readings can be large or run the other way. Potencies of inconclusive entries are left out as doubtful fits.

Biological target: Glucagon-like peptide 1 receptor (Homo sapiens) (UniProt P43220)
Test: qHTS of GLP-1 Receptor Inverse Agonists (Inhibition Mode); further: nearly all actives have a fitted effect of over 55% in size
Conditions: HEK293 GLP-1R CRE-luciferase, luminescence, 24 h, GLP-1R form is constitutively active; series mostly up to 38.3 µM
How it was run: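 qHTS in 1536-well format: reporter HEK293 cells expressing constitutive GLP-1R activity in DMEM + 10% Nu serum, 24 hr with compounds at 37 deg C, luminescence read after 12 min with detection reagent.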
Potency means the concentration at half of the fitted maximal effect; tags describe the fitted curve by direction and shape.

Sequence of UniProt P43220 (P43220 whole entry, looked up): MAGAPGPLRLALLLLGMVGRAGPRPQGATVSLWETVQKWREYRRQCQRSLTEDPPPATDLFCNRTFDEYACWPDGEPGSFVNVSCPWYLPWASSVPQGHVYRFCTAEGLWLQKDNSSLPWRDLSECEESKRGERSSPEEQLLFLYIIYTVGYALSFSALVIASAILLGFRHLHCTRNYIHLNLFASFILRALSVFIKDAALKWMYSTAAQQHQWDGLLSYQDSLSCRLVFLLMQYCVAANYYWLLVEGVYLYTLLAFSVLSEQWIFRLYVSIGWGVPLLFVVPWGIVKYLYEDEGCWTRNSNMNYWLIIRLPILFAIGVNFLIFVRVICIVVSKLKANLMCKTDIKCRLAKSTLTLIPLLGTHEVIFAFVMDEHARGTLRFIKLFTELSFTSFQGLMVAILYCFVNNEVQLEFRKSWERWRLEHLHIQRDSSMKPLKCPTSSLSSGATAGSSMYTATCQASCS

SMILES	Potency
CCCN1C(=O)c2[nH]nc(-c3ccccc3O)c2C1c1ccc(OCc2ccccc2)c(OCC)c1 (configuration not stated)	inconclusive [inhibitor, single point]
Fc1ccc(-c2nc3nc4ccccc4nc3n2Cc2ccco2)cc1	inconclusive [inhibitor, partial curve, poor fit]
CCSC1=C(C#N)C(c2cccc(Br)c2)CC(=O)N1 (configuration not stated)	inconclusive [inhibitor, partial curve, poor fit]
C#CCCCCCCCCC(=O)NCCCC	inconclusive [inhibitor, single point]
CC(C)NC(=O)c1onc(CSc2nc3ccccc3[nH]2)c1C(=O)NC(C)C	inactive
Cc1ccc(C(=O)Nc2cccc(C(=O)NCc3ccccc3)c2)o1	inconclusive [inhibitor, partial curve, poor fit]
CC(Cc1ccccc1)NC(=O)c1cc2ccccc2o1 (configuration not stated)	inconclusive [inhibitor, partial curve, poor fit]
NC(=S)NN=C1CSSC1	inconclusive [inhibitor, partial curve, poor fit]
CC(C)CSc1nnc(-c2ccccc2)c(-c2ccccc2)n1	inconclusive [inhibitor, single point]
O=C1CCCc2ccccc2N1Cc1cccc(F)c1	inconclusive [inhibitor, partial curve, poor fit]
Cc1csc(NC(=O)c2cc3c(s2)CCCCC3)n1	inconclusive [inhibitor, full curve, poor fit]
CCOc1ccccc1N1CCN(C(=O)c2cc3c(s2)CCC3)CC1	inconclusive [inhibitor, partial curve, poor fit]
Cc1ccc2oc(=O)c3cc(C(=O)Nc4ccc(F)cc4F)sc3c2c1	inactive
COc1ccccc1CC(=O)Nc1ccc(S(=O)(=O)N2CCCCC2)cc1	inconclusive [inhibitor, single point]
COc1ccc(C(NC(=O)/C=C\c2ccco2)c2ccc(OC)c(OC)c2)cc1 (configuration not stated)	inactive
COc1ccccc1OCCn1c(=S)[nH]c2ccccc21	inconclusive [inhibitor, single point]
c1ccc(-c2cc3nc(NCc4ccc5c(c4)OCO5)ccn3n2)cc1	inconclusive [inhibitor, single point]
CN1CCCN(Cc2ccccc2Br)CC1	inconclusive [inhibitor, partial curve, poor fit]
CC(C)Oc1ccc(CN2CCC(n3nccc3NC(=O)CCc3ccccc3)CC2)cc1	inconclusive [inhibitor, single point]
O=C(Cn1cc(SCc2ccc(C(F)(F)F)cc2)c2ccccc21)N1CCCCCC1	active: 7.08 µM
COc1ccc2c(CN(C)c3ccccc3)cc(=O)oc2c1	inconclusive [inhibitor, single point]

SMILES	Potency
Cn1nc(C(F)(F)F)c2cc(C(=O)Nc3ccc(F)c(Cl)c3)sc21	inconclusive [inhibitor, full curve]
CCCCCOP(=O)(c1ccccc1)c1ccccc1	inconclusive [inhibitor, single point]
COc1ccc(Cn2c(CNC(=O)c3ccc(N(C)C)cc3)nc3cccnc32)cc1	inactive
Cn1c(C(=O)N2CCCC(C(=O)NCc3ccccc3)C2)cc2sccc21 (configuration not stated)	inconclusive [inhibitor, partial curve, poor fit]
CCN(CC(=O)Nc1cc(S(=O)(=O)N2CCOCC2)ccc1C)Cc1ccccc1	inconclusive [inhibitor, partial curve, poor fit]
CC1(C)CC(=O)C2=C(C1)NC1=C(C(=O)c3ccccc31)C2c1ccccc1 (configuration not stated)	inconclusive [inhibitor, single point]
CCC(C(=O)Nc1ccc(C(=O)O)cc1NC(=O)C(CC)c1ccccc1)c1ccccc1 (configuration not stated)	inactive
O=C(NNc1nc(-c2ccc(Cl)cc2)cs1)c1ccco1	inconclusive [inhibitor, single point]
CCCC(=O)NC(Nc1cc(C(F)(F)F)ccc1Cl)C(Cl)(Cl)Cl (configuration not stated)	inconclusive [inhibitor, partial curve, poor fit]
CCC(C)[C@H](NC(=O)N1CCn2c1nc1ccccc12)C(=O)NCCc1ccc(OC)c(OC)c1 (some centres not stated)	inconclusive [inhibitor, single point]
COc1ccc(-c2cn3cc(C(F)(F)F)cc(Cl)c3n2)cc1	inconclusive [inhibitor, partial curve, poor fit]
O=C(Nc1c(C(=O)N2CCN(c3ccc(F)cc3)CC2)oc2ccccc12)c1c(F)cccc1F	inconclusive [inhibitor, single point]
COc1ccc(C2CC(c3cccc(C(F)(F)F)c3)=NN2c2ccc(S(N)(=O)=O)cc2)cc1 (configuration not stated)	inconclusive [inhibitor, single point]
Cc1cccc(N2CCN(CCCNC(=O)C3CCCN(c4ncnc5c4nc4n5CCCCC4)C3)CC2C)c1 (configuration not stated)	inconclusive [inhibitor, partial curve, poor fit]
O=C(NCCc1ccccn1)c1cc(-c2ccc(Cl)cc2)nc2ccccc12	inconclusive [inhibitor, single point]
CCCc1ccc(OCC(O)CN2CCc3ccccc3C2)cc1 (configuration not stated)	inconclusive [inhibitor, single point]
O=C1OCCN1C(=O)[C@H]1[C@H](c2ccc(F)cc2)C(c2ccccc2)=NN1c1ccccc1	inconclusive [inhibitor, single point]
COc1cc(NC(=O)C2COc3ccccc3O2)c(OC)cc1Cl (configuration not stated)	inconclusive [inhibitor, single point]
COc1cc2ccccc2cc1C(=O)Nc1ccc(Br)cn1	inactive
O=C(c1ccc2c(c1)N(Cc1ccccc1)C(=O)c1ccccc1S2(=O)=O)N1CCN(c2ccccc2)CC1	inactive
Cc1ccc(Nc2ncnc3c2oc2ccccc23)cc1	inconclusive [inhibitor, single point]

SMILES	Potency
Clc1ccc(OCCOCCN2CCc3ccccc3C2)c(Cl)c1	active: 11.2 µM
CCOC(=O)c1c(C)[nH]c(C(=O)OCc2ccccc2F)c1C	inconclusive [inhibitor, single point]
COc1ccc(-c2nnc(SC(C)C(=O)Nc3cccc(Cl)c3)o2)cc1 (configuration not stated)	inconclusive [inhibitor, single point]
OC[C@@H]1CN(Cc2ccc3c(c2)OCO3)C[C@H](n2cnc3c(N4CCN(c5ccccc5)CC4)ncnc32)O1	inconclusive [inhibitor, single point]
NCCCn1c(C(=O)c2cc(Cl)c(N)c(Cl)c2)c2ccc([N+](=O)[O-])cc2[n+]1[O-]	inactive
CCn1c(-c2csc(-c3ccccc3)n2)n[nH]c1=S	inconclusive [inhibitor, partial curve, poor fit]
Cc1nn(C(C)C(=O)NC2CCCCC2)c(=O)c2c1sc1ccccc12 (configuration not stated)	inactive
COc1ccc(CC(=O)NC2CC(=O)N(c3cccc(F)c3)C2)cc1 (configuration not stated)	inactive
Cc1ccc(-c2nnc(Nc3ccc(Br)cc3)c3ccccc23)cc1S(=O)(=O)N1CCN(C)CC1	inconclusive [inhibitor, single point]
Cc1nn(-c2ccccc2)nc1C(=O)Oc1cc(C(F)(F)F)nn1-c1ccccc1	inconclusive [inhibitor, single point]
CCN(c1ccccc1)C(CNS(=O)(=O)c1ccccc1)c1ccccc1 (configuration not stated)	active: 10 µM
CC(Oc1ccc(Br)cc1)C(=O)Nc1ccc(S(=O)(=O)Nc2nccs2)cc1 (configuration not stated)	inconclusive [inhibitor, single point]
CN(c1cccc(NC(=O)c2ccc(CN3CCc4ccccc4C3)cc2)c1)S(C)(=O)=O	inconclusive [inhibitor, partial curve, poor fit]
CCN(CC)CCN(C(=O)CCS(=O)(=O)c1ccccc1)c1nc2c(C)cc(C)cc2s1	inconclusive [inhibitor, partial curve, poor fit]
CC(C)(C)N(Cc1ccccc1)C(=O)COC(=O)c1ccc(Br)o1	inconclusive [inhibitor, partial curve, poor fit]
COc1ccc(C(CCN2CCOCC2)c2c(OC)cc(OC)c3c(-c4ccccc4)cc(=O)oc23)cc1 (configuration not stated)	inconclusive [inhibitor, single point]
Cc1ccc(C)c2[nH]c(=O)c(CN(Cc3ccco3)S(=O)(=O)c3ccc4c(c3)OCCO4)cc12	inconclusive [inhibitor, single point]
CCc1ccc(N(C(=O)CCC(=O)Nc2cc(C)on2)C(C(=O)NC(C)(C)C)c2ccc(OC)cc2)cc1 (configuration not stated)	inconclusive [inhibitor, partial curve, poor fit]
CSc1ccc(CCNC(=O)C2CCCN(c3ncnc4c3nc3n4CCCCC3)C2)cc1 (configuration not stated)	inconclusive [inhibitor, partial curve, poor fit]
Cc1ccc(NC(=O)CSc2nc(C)c(Cc3ccccc3)c(=O)[nH]2)cc1C	inconclusive [inhibitor, single point]
